# From article PMC12040169 (PLOS Biology, 2025)
# This is one part of the list.
# Tested on: T1, C. trachomatis L2/434/Bu expressing GFP (CTL2-GFP)
# T1 construct: L2/434/Bu GFP intracellular growth in HeLa cells
# Set-up: species or system HeLa; C. trachomatis total inclusion area by high-content imaging, normalised to DMSO
# Conditions: total inclusion area; 28.5 h, 10 µM; inhibitor
# Procedure, shortened: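 High-content imaging followed the bulk GFP/resorufin measurement: fixed, Hoechst-stained cells were scored for GFP inclusions and host nuclei per well. Total inclusion area and count served as growth proxies, nuclei number as the viability proxy. MIC calculation matched the bulk assay.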
row,Structure (SMILES),% of control remaining
1,CC(=O)Nc1cccc(-n2c(C)nnc2SCC2CCCCC2)c1 [CBK304590],67.1503
2,Cc1cc(C)nc(N2CCCC(O)(c3nc(C)c(CCOc4ccccc4)s3)CC2)n1 (stereo not drawn) [CBK285924],96.0256
3,CCOc1cc(C2Nc3ccccc3NC3=C2C(=O)C(C(=O)OC)C(C)C3)ccc1OC(C)C (stereo not drawn) [CBK268456],140.786
4,NC(=S)NC(=O)CN1C(=O)c2ccccc2C1=O [CBK264111],112.435
5,CC(C)(C)OC(=O)N1CCC(c2nc3ccccc3cc2N)CC1 [CBK285038],98.4737
6,CCC(CO)Nc1nccnc1-c1cccs1 (stereo not drawn) [CBK036800],123.471
7,Cc1nc(C(Cc2ccsc2)NC(=O)c2cc[nH]n2)sc1C (stereo not drawn) [CBK284776],84.2229
8,Cc1nc(-c2cc3c(s2)CCN(Cc2ccc(CO)o2)C3)cs1 [CBK306411],117.198
9,Cc1ccc(-c2nc(C)sc2CC(=O)N(C)CCN(C)C)cc1 [CBK282175],97.4695
10,O=C(CCSc1ccccc1)Nc1ccccc1C(=O)N1CCCCC1 [CBK269545],107.253
11,O=C1CCC(=O)N1CCOc1nccnc1OC1CCN(Cc2ccc(Cl)cc2)CC1 [CBK084338],95.1818
12,Cc1ccc(Cn2nnc3c(O)nc(C4CCN(C(=O)CC(C)(C)C)CC4)nc32)cc1 [CBK293970],87.8544
13,O=C(c1cc(F)c(F)cc1F)N1CCC2(CCCN(C/C=C/c3ccccc3)C2)C1 (stereo not drawn) [CBK132001],88.7097
14,COc1ccccc1C(=O)N1CCC(c2nc(C)n3ccccc23)C1 (stereo not drawn) [CBK282221],95.2316
15,CCCC/C=C/c1cncc(NC2CCC(O)CC2)n1 (stereo not drawn) [CBK037840],95.2583
16,CC(=O)Nc1ccc(N2C(=O)CSC2c2ccccc2[N+](=O)[O-])cc1 (stereo not drawn) [CBK294443],99.002
17,COc1ccc(N(CC(=O)Nc2cccc3cccnc23)S(=O)(=O)c2ccc(C)cc2)cc1 [CBK263965],109.693
18,O=C(NCCN1CCCC1)C1CCCN(c2nc3c(-c4ccccc4)csc3c(=O)[nH]2)C1 (stereo not drawn) [CBK215507],97.5195
19,COc1cc(CO)c(-c2c[nH][nH]c2=O)cc1OC [CBK009476],64.9852
20,Cc1cc(S(=O)(=O)NCCC#N)c(C)cc1Cl [CBK043680],108.861
21,CCOC(=O)[C@H]1CN(C(=O)C(C)(C)NC(=O)OC(C)(C)C)C[C@@H]1c1cc2cc(C)ccc2o1 [CBK001599],107.566

row,Structure (SMILES),% of control remaining
1,Cc1ccc(S(=O)(=O)N(CC(=O)O)c2ccccc2C)cc1 [CBK262423],105.056
2,Cc1ccc(C2=NN(C(=O)CCC(=O)O)C(c3ccc4nccnc4c3)C2)cc1 (stereo not drawn) [CBK287802],103.054
3,O=C(CCc1ccccc1)N1CCC(c2cccc(Cc3cccc(F)c3)n2)CC1 [CBK286219],103.966
4,CCn1cc(S(=O)(=O)NCc2ccccc2OC)cn1 [CBK270304],68.9043
5,Cc1cc(C)nc(SCCN2CCOCC2)n1 [CBK261769C],88.8652
6,FC(F)(F)c1ccnc(OCCOc2ccc(Cl)cc2)n1 [CBK115838],105.99
7,Cc1ccncc1C(=O)Nc1c(C)noc1C [CBK200393],96.9877
8,CC(C)c1ccc(-c2cncc(NCc3cccc(Cl)c3)n2)cc1 [CBK065347],99.2549
9,Cc1ccc2nc(C(=O)NCCSc3nccn3C)cn2c1 [CBK281397],101.898
10,CCn1c(SCC(=O)N2CCN(c3ccccc3)CC2)nnc1-c1ccc(N)cc1 [CBK265786],72.3016
11,CC(C)(C)OC(=O)NCCNCc1cc(F)cc(F)c1 [CBK056698],94.9236
12,COc1cc(OC)cc(-c2c(C)ncnc2OC)c1 [CBK306765],57.2224
13,O=C(CN1CCC(c2ccc(F)cc2)CC1)N1CCCC1 [CBK283502],80.1604
14,Cn1ncc2c1CCCN(C(=O)COc1ccc(F)cc1F)C2 [CBK285229],81.4635
15,CNS(=O)(=O)c1ccc(C(C)NC(=O)N2CCN3CCC2CC3)cc1 (stereo not drawn) [CBK304765],36.2835
16,COc1cccc(C(=O)N2CCC[C@@H](N)[C@@H]2c2ccccc2F)c1 [CBK283457],109.153
17,CC1(C)CC(=O)C=C(C(=O)NCc2ccc(OC3CCNCC3)cc2)O1 [CBK038948T],91.2543
18,Cc1cc(C)c2c(n1)nn1c(C)c(CCC(=O)O)c(C)nc21 [CBK265892],97.1209
19,Cc1nc(-c2cc3c(s2)CCN(CC(O)Cn2cccn2)C3)cs1 (stereo not drawn) [CBK304458],92.6823
20,O=C1COc2ccccc2C/C=C/CC2(CCN(Cc3cncnc3)CC2)CN1 [CBK292130],56.0726
21,O=C(NC1CC2(CCCCC2)Oc2ccccc21)C1CCOC1 (stereo not drawn) [CBK283760],104.296

row,Structure (SMILES),% of control remaining
1,COC(=O)[C@@H]1Cc2ncn(Cc3ccc(Cl)cc3)c2CN1C(=O)c1ccc(OC)cc1 [CBK288983],109.018
2,O=C(CC1CC1)NCc1ccc(-c2csnn2)cc1 [CBK149287],101.096
3,CCOC(=O)c1nc2c(n1C)[C@H]1[C@H](O)[C@H](O)C[C@H]1C1(CCC1)N2 [CBK303241],79.6242
4,O=C(O)c1ccc(NC(=O)c2cn(-c3ccccc3)nc2-c2cc3ccccc3o2)cc1 [CBK266587C],108.644
5,Cc1sc2nc(SCc3nc(-c4ccccc4)no3)n(-c3ccccc3)c(=O)c2c1C [CBK266492],99.9968
6,O=S(=O)(c1ccc(Cl)s1)N1CCN(Cc2ccc3c(c2)OCO3)CC1 [CBK270324],102.379
7,C[C@@H]1CN[C@@H](C)CN1Cc1cc(NS(=O)(=O)c2ccccc2Cl)cc2ccoc12 [CBK107211T],100.455
8,Cc1nncn1-c1ccc(Cl)cc1C(=O)c1ccccc1Cl [CBK012372],87.9392
9,Cc1ccc(CNC(=O)C2(c3ccccc3)CCCC2)cc1F [CBK161529],110.378
10,OCC(CO)(CO)NCc1ccc(-c2ccccc2)cc1 [CBK268742C],123.54
11,C/C(=N\NC(=O)C(C)Sc1ncccn1)C(C)(C)C (stereo not drawn) [CBK020243],106.891
12,O=C(Cc1ccn[nH]1)N1CC(O)CC1c1cc(F)ccc1F (stereo not drawn) [CBK304872],51.1172
13,COc1ccc(CCNc2ncnc3c2cnn3-c2ccc(C)cc2C)cc1OC [CBK294448],90.1571
14,COc1cc2cc3c(N)c(C(=O)NCc4cccs4)sc3nc2cc1OC [CBK120215],111.017
15,COC(=O)CCn1c(=O)c2c(nc3oc(C(C)(C)C)cn32)n(C)c1=O [CBK306034],46.3322
16,Cc1ccc(-c2cc(C(=O)O)c3cc4c(C(=O)O)cc(-c5ccc(C)o5)nc4cc3n2)o1 [CBK264342],64.2858
17,CCCNC(=O)c1sc(Nc2ccc(Cl)cn2)nc1C [CBK287850],80.4482
18,COc1ccc(-c2cn3cccnc3n2)cc1NC(=O)c1ccccc1 [CBK287296],108.709
19,Cc1cc(F)ccc1NC(=O)c1n[nH]cc1Cl [CBK288020],64.8058
20,Cc1cccc(Nc2ncnc3ccccc23)c1 [CBK072827],103.045
21,Cn1c(=S)[nH]c2c(-c3ccccc3)c[nH]c2c1=O [CBK288488],60.0129

row,Structure (SMILES),% of control remaining
1,Cc1cc(C)n(CC(=O)NCC2CCCO2)c(=O)c1C#N (stereo not drawn) [CBK269926],87.4455
2,COc1ncccc1C(=O)N1CCc2ccccc2C1 [CBK200336],91.85
3,Nc1cccc(-c2cc(Nc3ccc(CCO)cc3)ncn2)c1 [CBK090766],100.216
4,O=C(NCCN1CCCCC1)C1CC(=O)N(Cc2ccccc2)C1 (stereo not drawn) [CBK305150],44.5346
5,Cc1cc(C[C@@H]2COC[C@H]2NCc2ccc(C(C)C)cc2)on1 [CBK284884],114.649
6,Cc1nn(C)c(Cl)c1S(=O)(=O)Nc1ccc2cc(Br)cnc2n1 [CBK073892],99.5361
7,O=C(CSc1nccc2ccccc12)NC1CCCOC1 (stereo not drawn) [CBK282677],118.947
8,CC1CCc2c(sc3ncnc(NCCc4nc5ccccc5[nH]4)c23)C1 (stereo not drawn) [CBK268809],95.4512
9,S=C(NCCC(c1ccccc1)c1ccccc1)NC1CCCCC1 [CBK264007],71.3991
10,CC(C)C(=O)NC(c1ccco1)c1ccc2cccnc2c1O (stereo not drawn) [CBK263277],96.3186
11,CCOc1ccccc1OCc1nn2c(-c3ccncc3)nnc2s1 [CBK268535],103.772
12,C=C(C)Cn1c(SC(C)C)nnc1-c1cccnc1 [CBK200073],84.4281
13,CCC1CCc2c(sc(NC(=O)c3cc(-c4ccc(Cl)s4)nc4ccccc34)c2C(N)=O)C1 (stereo not drawn) [CBK262646],82.6484
14,COc1ccc(C(NC(=O)C2CCN(C(=O)C(C)(C)C)CC2)c2cnccn2)cc1 (stereo not drawn) [CBK059791],67.555
15,CS(=O)(=O)c1ccc2nc(Nc3nc4c(F)cccc4s3)sc2c1 [CBK287478],89.1099
16,O=C(Cc1ccccc1)NC(Cc1ccc(Cl)cc1)C(=O)O (stereo not drawn) [CBK286976],32.9437
17,Cc1ccc2c(c1)C(=O)CC1(CC3CCC1N3C(=O)C(C)C)O2 (stereo not drawn) [CBK284468],114.195
18,CC(C)C(=O)N1CCC2(C/C=C/C[C@H]3COCC[C@H]3NC(=O)CNC2=O)CC1 [CBK292157],95.8296
